In all, about 52,000 compounds went through this assay and about 4,300 (8.3%) were called active. No stated cut-off is given here; in the data, active means survival mostly below about 52% (no sharp cut-off); inactive means mostly above about 56%. This is one part of the list.

The test system of the test is DeltatarO mutant. Nature of the test: S. aureus survival, RN4220 and DeltatarO strains – OD600, teichoic acid synthesis inhibitors, primary screen (AID 463173). The conditions noted are these: S. aureus RN4220 wild type/DeltatarO growth, OD600, 18 h, hits give low values, screened at 18.75 µg/mL (by protocol).
Consider `COc1ccc(N(Cc2ccccc2)C(=O)c2nc(S(C)(=O)=O)ncc2Cl)cc1`, for which the survival is inactive: 51%.
Regarding `Cc1cc(C)nc(N(C#N)CCOc2ccc(Cl)cc2)n1`, the survival is inactive: 57%.
For `Cc1cccc(N2CCN(C(=O)Cn3nc(C)c4sc5ccccc5c4c3=O)CC2)c1C` the value was inactive: 73%; for `COc1ccc(CNC(=O)Cn2c(=O)nc(-c3ccccc3)c3cc(Cl)ccc32)cc1OC`, inactive: 81%.
For `CCCSCCCNC(=O)C1CCN(C(=O)c2cnn(-c3ccccc3)c2-n2cccc2)CC1` the value was inactive: 70%.
For the molecule `COc1cccc(C(=O)Nc2ccc(-n3nncc3-c3ccccc3)cc2)c1OC`, the survival was inactive: 97%.
For `COc1ccccc1-c1c(C)nn2c(-c3ccccc3)cc(-c3ccccc3)nc12` the value was inactive: 81%.
In the case of `CCOc1ccc(C2=NC(c3ccncc3)=Nc3ccc(C)cc3N2)cc1OCC` it was inactive: 91%; in that of `CC1CN(C(C)(C)C)CCC1(O)c1ccccc1` (stereo not given), inactive: 100%; in that of `Cc1ccc(OCCn2cc(C(=O)c3cccs3)c3ccccc32)cc1`, inactive: 69%.
For `COc1ccc(C2CC(=O)c3c([nH]c(C(=O)OCc4ccccc4)c3C)C2)cc1` (stereo not given) the value was inactive: 81%; for `COCc1cc(C)nc2sc(C(=O)Nc3ccccc3O)c(N)c12`, inactive: 83%.
On to `CCCCN(CCCC)CCNC(=O)Cn1nc(CC)n2c(cc3sccc32)c1=O`, for which the survival is inactive: 83%.
Take `CCC1=Nc2cc(C(=O)NCCc3ccc(OC)c(OC)c3)ccc2Sc2ccccc21`: the survival is inactive: 73%.
For `Cc1ccc(/C(C#N)=C\c2ccco2)cc1`, the survival was inactive: 90%.
For the molecule `CCc1c(C)sc2c1CCN(Cc1cccc(OC)c1)C2c1ccccc1` (stereo not given), the survival is inactive: 60%.
For `CCc1ccc(C(=O)CC2(O)C(=O)N(CCc3ccccc3)c3ccc(Br)cc32)cc1` (stereo not given) the value was inactive: 52%.
Regarding `Cc1ccc(CSC2=Nc3ccccc3C3=NC(CCC(=O)NC4CCCCC4)C(=O)N23)cc1` (stereo not given), the survival is inactive: 120%.
In the case of `CCc1ccccc1S(=O)(=O)Cc1ccc(C(=O)NCc2ccc(Cl)cc2)o1` it was inactive: 49%.
For `COC(=O)c1ccc(Cl)cc1NC(=O)Nc1nnc(N(C)C2CCCCC2)s1` the value was inactive: 81%; for `COc1ccc(CCC(=O)NCc2ccc3c(c2)CCN3C(=O)c2ccc(Cl)cc2)cc1`, inactive: 89%.
As for `c1ccc(CN2CCN(c3nc(N4CCOCC4)c4ccccc4n3)CC2)cc1`, the survival is inactive: 93%.
`O=C1S/C(=C/c2ccccc2)C(=O)N1c1ccccc1`: the survival is inactive: 65%.
Consider `CC(=O)c1cccc(NC(=O)CSc2nc3c(c(=O)[nH]2)CCC3)c1`, for which the survival is inactive: 73%.
In the case of `COc1ccc(NC(=O)CSc2nc(-c3cccs3)cc(C(F)(F)F)n2)cc1Cl` it was active: 37%.
